Experimental data taken from article PMC6212790.
Some of the results follow. At the low end of the ranking the order means little.

target: T1, GST-Rok (full length) (UniProt O34857); experiment: protein binding microarray; settings: Rok is a gene silencer of Bacillus subtilis; high values mean tight binding; most listed sequences are background and not binding sites; double strand, one strand shown;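 note: rank score from −0.5 (least bound) to 0.5 (best bound)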
T1 sequence: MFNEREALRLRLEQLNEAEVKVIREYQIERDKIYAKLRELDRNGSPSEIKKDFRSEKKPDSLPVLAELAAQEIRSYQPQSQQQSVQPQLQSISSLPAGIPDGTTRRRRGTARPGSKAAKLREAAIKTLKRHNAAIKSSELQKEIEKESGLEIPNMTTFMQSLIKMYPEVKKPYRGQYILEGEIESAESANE

Sequence	binding signal [E-score]
AGGTTCAT	-0.0409
GTATAGTA	0.316
GCTAGCGA	-0.14
GTAGAGAC	0.148
CTGCGGAA	-0.0612
TCGCAACA	-0.0642
AGTTCTTC	0.108
ATTTATTG	0.348
AACATCCT	0.0603
TAGCGACA	0.06
CCGCGAAC	-0.108
ATTTAACG	0.119
CGTCTTAG	-0.153
CACTCTGA	-0.192
TGTTCTAA	0.14
GATGTACC	0.0515
GACGTTAC	0.0523
CCAGAGAG	-0.238
GACCGATC	-0.0838
TAGTTACA	0.349
CACTAACA	0.166
CCCGGCAC	-0.109
CCACCGGC	-0.237
CACGAGAA	-0.194
TAAGACTA	0.101

Sequence	binding signal [E-score]
ATGTAATC	0.0219
GGGACCAA	-0.313
AGCGCACT	-0.17
ACCGAACT	0.181
CCGCCTCC	-0.353
AGTTTTTG	0.132
CATGCCGG	-0.273
CATAAACC	0.11
CCAAGTCC	-0.24
ACTGACAG	0.0295
TAACAAAA	0.181
GATGATAC	0.1
AAGATGCT	-0.108
ATCCGAGA	0.141
GCCAGCCC	-0.31
ACCGAAGG	-0.228
ACGCCACA	-0.0467
ATTCTATA	0.247
ACCTATCC	0.0402
CACGTTAC	0.195
CAACATAG	0.0718
CTCTCGCC	-0.343
CTGTACAC	-0.0342
ACCAGTGC	-0.175
CGATATGA	-0.103

Sequence	binding signal [E-score]
AAGGAAGG	-0.306
ATTCTTGA	-0.0119
CATCTATA	0.199
GATGCAAC	0.0442
CCAGACAG	-0.312
CACATAGC	0.177
GAGAGCCC	-0.474
AACAAGTC	-0.0897
AGATCGTG	0.0263
CCTTGTAA	-0.0485
TGTGCACA	-0.0141
GTAGGATA	0.103
AAGATGTA	0.23
GCCCGGTA	-0.203
ACTCGCCA	-0.0788
ATTCCCCC	-0.278
AGTGCTAC	0.156
AAATAGTC	0.119
CAAAACCG	-0.264
CCATCATA	0.112
AATTTAAC	0.207
GAGATATA	0.157
ATCGAGGG	-0.0869
CAGGCATC	-0.162
CTAGTGAG	-0.0281

Sequence	binding signal [E-score]
ATGGGATA	0.182
CTACAGAG	0.0344
TGACCCCA	-0.335
TGCTATAA	0.304
AAGCTGCT	-0.115
CCGTAACC	-0.0179
CCGCAAAC	-0.164
GCATTTCA	-0.00805
CAGACGAA	-0.0357
GCCGGAGA	-0.257
GAACAACA	-0.0557
ACTCGTTA	0.299
AGCCAACT	-0.0605
CACACCGA	0.0585
CGACGATC	-0.127
CGGGGATC	-0.182
GCAAAGAA	0.0419
AACTTGAC	0.054
ACCCTCTG	-0.158
CAGGCTCC	-0.379
TAGACCCA	-0.107
CGAGTGTC	0.113
ATACGGGA	-0.0244
AACCAGGG	-0.249
AGGCGCCT	-0.319

Sequence	binding signal [E-score]
AACTTTTG	0.153
AGACTAAG	-0.0453
AGTTCGGA	0.162
AACGCCCC	-0.349
TCCAATCA	-0.035
AGACAAGC	-0.0419
AAGTGACG	0.0469
AATACTGC	0.188
CAAGTTAG	0.189
CCGCGTAG	0.0119
ACTGCCAG	-0.178
ATGAGGCA	-0.296
AAGTTTCG	0.286
CCTTACAG	0.0844
CATGTTAG	0.0942
ACGATGGC	-0.0658
AATAGATT	0.388
CACACCTA	0.193
ACACTACA	0.276
TCATAAGA	0.256
CCAAAACC	-0.268
ACGCCAAG	0.0853
GTACGGAA	0.219
AGTGGTTC	-0.00325
AACCACGG	0.0182

Sequence	binding signal [E-score]
AGCTGCTC	-0.187
CGATTATA	0.215
AATACAGG	0.029
AGGATTTA	0.0716
GAAATCGA	-0.0156
ACAGATAG	0.238
ATTTACAC	0.23
AAACTAGT	0.459
ATGGGACC	-0.261
CTCATCGC	-0.03
ACGTCGTC	-0.169
GACTTTAC	-0.0941
AGAAGCCG	0.125
GGAACGAA	-0.131
ATGATTAC	0.0788
CGGGCCCA	-0.265
AACCATAC	0.147
CGACCACA	-0.0763
AAATGCAG	-0.183
CCCGACAA	-0.243
AAATCACG	0.21
AGAAGTAC	0.195
ATTTTGGA	0.0687
ATTGGTTC	-0.0336
AAGAGTAT	0.0908

Sequence	binding signal [E-score]
ATACCGGC	0.0494
AACATTGA	0.0541
CCCAGGAA	-0.0394
ATCTGCGC	0.0719
CTCTCTCC	-0.196
ATCGAGTG	0.124
AGGCAATC	-0.0764
ATAGATTG	0.316
ACGATAAC	0.169
CGACTAAC	0.0783
CGGCTGCA	-0.347
AGCAGCCC	-0.246
AAGGTATG	0.0476
ACCCCGCA	-0.369
AGACTGCA	-0.0749
GCGCGATA	0.203
AGATCACG	-0.0727
CAGTTAGC	0.184
AAGCTAGT	0.3
TACATTCA	0.313
CAGGTCAG	-0.0398
AATTTTCG	0.139
